# According to the supplement of paper PMC4967469:
# By IC50 is meant the dose at which the fit gives 50% viability; a limit (>, <) means that the fit lies beyond the doses tested. AUC, from the same fit, is the share of area under the viability curve across the 256-fold dose range; the more sensitive the line, the further below 1. Where the top dose is marked as inferred, it is not printed in the source and was worked back from the curve model.
# Compound: Cc1ccc(-c2c(C(=O)CF)n(CCCO)c3ncnc(N)c23)cc1 [FMK]
# Assay: Viability of human cancer cell lines after 72 h of drug (GDSC screen)
# Details: top dose inferred
# Procedure: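 Human cancer cell lines in 384-well plates, medium with 10% serum, drug for 72 h over a 256-fold dose range (nine 2-fold or five 4-fold steps up to the top dose). Adherent lines were fixed and stained with the nucleic acid dye Syto60, suspension lines read with resazurin; signal relative to control wells, capped at 0 and 100%. One two-parameter sigmoid per drug and line, fitted in a mixed model over all curves with the slope shared within a line.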
Cell Line,AUC,IC50 [µM]
"Hep 3B2_1-7 (liver, adherent, top dose 20 µM)",0.985,> 20
"Hs633T (fibrosarcoma, adherent, top dose 20 µM)",0.992,> 20
"Hs683 (glioma, adherent, top dose 20 µM)",0.98,> 20
"Hs766T (pancreas, adherent, top dose 20 µM)",0.984,> 20
"Hs939-T (melanoma, adherent, top dose 20 µM)",0.986,> 20
"Hs-445 (Hodgkin lymphoma, suspension, top dose 20 µM)",0.965,> 20
"Hs-578-T (breast, adherent, top dose 20 µM)",0.987,> 20
"HuCCT1 (biliary tract, adherent, top dose 20 µM)",0.973,> 20
"HuH-7 (liver, adherent, top dose 20 µM)",0.986,> 20
"HuO9 (osteosarcoma, adherent, top dose 20 µM)",0.963,> 20
"HuO-3N1 (osteosarcoma, adherent, top dose 20 µM)",0.974,> 20
"HuP-T3 (pancreas, adherent, top dose 20 µM)",0.939,> 20
"HuP-T4 (pancreas, adherent, top dose 20 µM)",0.981,> 20
"IA-LM (large cell lung carcinoma, adherent, top dose 20 µM)",0.985,> 20
"IGR-1 (melanoma, adherent, top dose 20 µM)",0.979,> 20
"IGR-37 (melanoma, adherent, top dose 20 µM)",0.987,> 20
"IHH-4 (thyroid, semi-adherent, top dose 20 µM)",0.993,> 20
"IM-95 (stomach, adherent, top dose 20 µM)",0.958,> 20
"IPC-298 (melanoma, adherent, top dose 20 µM)",0.982,> 20
"IST-MEL1 (melanoma, adherent, top dose 20 µM)",0.948,> 20
"IST-SL1 (small cell lung carcinoma, semi-adherent, top dose 20 µM)",0.971,> 20

Cell Line,AUC,IC50 [µM]
"IST-SL2 (small cell lung carcinoma, suspension, top dose 20 µM)",0.984,> 20
"J82 (bladder, adherent, top dose 20 µM)",0.979,> 20
"JEG-3 (urogenital system, adherent, top dose 20 µM)",0.991,> 20
"JHH-1 (liver, adherent, top dose 10.24 µM)",0.95,> 10.2
"JHH-2 (liver, adherent, top dose 10.24 µM)",0.985,> 10.2
"JHH-4 (liver, adherent, top dose 20 µM)",0.913,> 20
"JHH-6 (liver, adherent, top dose 20 µM)",0.987,> 20
"JHH-7 (liver, adherent, top dose 10.24 µM)",0.989,> 10.2
"JHU-011 (head and neck, adherent, top dose 20 µM)",0.952,> 20
"JHU-022 (head and neck, adherent, top dose 20 µM)",0.948,> 20
"JIMT-1 (breast, adherent, top dose 20 µM)",0.984,> 20
"JJN-3 (haematopoietic neoplasm, suspension, top dose 20 µM)",0.977,> 20
"JSC-1 (B-cell lymphoma, suspension, top dose 20 µM)",0.937,> 20
"JURL-MK1 (chronic myeloid leukaemia, suspension, top dose 20 µM)",0.965,> 20
"JVM-2 (lymphoid neoplasm, suspension, top dose 20 µM)",0.964,> 20
"JVM-3 (lymphoid neoplasm, suspension, top dose 20 µM)",0.987,> 20
"JiyoyeP-2003 (Burkitt lymphoma, suspension, top dose 20 µM)",0.991,> 20
"K2 (melanoma, adherent, top dose 20 µM)",0.976,> 20
"K5 (thyroid, adherent, top dose 20 µM)",0.988,> 20
"K-562 (chronic myeloid leukaemia, suspension, top dose 20 µM)",0.965,> 20
"KALS-1 (glioma, adherent, top dose 20 µM)",0.962,> 20

Cell Line,AUC,IC50 [µM]
"KARPAS-45 (lymphoblastic leukaemia, suspension, top dose 20 µM)",0.826,9.52
"KARPAS-299 (anaplastic large cell lymphoma, suspension, top dose 20 µM)",0.992,> 20
"KARPAS-422 (B-cell lymphoma, suspension, top dose 20 µM)",0.985,> 20
"KARPAS-620 (haematopoietic neoplasm, suspension, top dose 20 µM)",0.952,> 20
"KASUMI-1 (acute myeloid leukaemia, suspension, top dose 20 µM)",0.954,> 20
"KCL-22 (chronic myeloid leukaemia, suspension, top dose 20 µM)",0.97,> 20
"KE-37 (lymphoblastic leukaemia, suspension, top dose 20 µM)",0.895,14.2
"KELLY (neuroblastoma, adherent, top dose 20 µM)",0.986,> 20
"KG-1 (acute myeloid leukaemia, suspension, top dose 20 µM)",0.972,> 20
"KGN (ovary, adherent, top dose 20 µM)",0.925,> 20
"KINGS-1 (glioma, adherent, top dose 20 µM)",0.969,> 20
"KLE (endometrium, adherent, top dose 20 µM)",0.966,> 20
"KM12 (large intestine, adherent, top dose 20 µM)",0.982,> 20
"KM-H2 (Hodgkin lymphoma, suspension, top dose 20 µM)",0.989,> 20
"KMH-2 (thyroid, adherent, top dose 10.24 µM)",0.99,> 10.2
"KMOE-2 (acute myeloid leukaemia, suspension, top dose 20 µM)",0.953,> 20
"KMRC-1 (kidney, adherent, top dose 20 µM)",0.986,> 20
"KMRC-20 (kidney, adherent, top dose 20 µM)",0.989,> 20
"KMS-12-BM (myeloma, suspension, top dose 20 µM)",0.972,> 20
"KNS-42 (glioma, adherent, top dose 20 µM)",0.984,> 20
"KNS-81-FD (glioma, adherent, top dose 20 µM)",0.976,> 20

Cell Line,AUC,IC50 [µM]
"KON (head and neck, adherent, top dose 20 µM)",0.984,> 20
"KOPN-8 (B-cell leukaemia, suspension, top dose 20 µM)",0.958,> 20
"KP-1N (pancreas, adherent, top dose 10.24 µM)",0.976,> 10.2
"KP-2 (pancreas, adherent, top dose 20 µM)",0.985,> 20
"KP-3 (pancreas, adherent, top dose 20 µM)",0.944,> 20
"KP-4 (pancreas, adherent, top dose 20 µM)",0.893,> 20
"KS-1 (glioma, adherent, top dose 20 µM)",0.938,> 20
"KU812 (chronic myeloid leukaemia, suspension, top dose 20 µM)",0.97,> 20
"KU-19-19 (bladder, adherent, top dose 20 µM)",0.987,> 20
"KURAMOCHI (ovary, adherent, top dose 20 µM)",0.976,> 20
"KY821 (leukaemia, suspension, top dose 20 µM)",0.982,> 20
"KYSE-50 (oesophagus, adherent, top dose 20 µM)",0.99,> 20
"KYSE-70 (oesophagus, adherent, top dose 20 µM)",0.984,> 20
"KYSE-150 (oesophagus, adherent, top dose 20 µM)",0.971,> 20
"KYSE-180 (oesophagus, adherent, top dose 20 µM)",0.974,> 20
"KYSE-220 (oesophagus, adherent, top dose 20 µM)",0.928,> 20
"KYSE-270 (oesophagus, adherent, top dose 20 µM)",0.981,> 20
"KYSE-410 (oesophagus, adherent, top dose 20 µM)",0.976,> 20
"KYSE-450 (oesophagus, adherent, top dose 20 µM)",0.889,> 20
